# From the supplement of paper PMC4166925
# ± gives the standard deviation of the averaged measurements. In all, about 33,000 sequences were measured (“E-score (dimensionless, -0.5 to 0.5)”: median about -0.049, highest 2% from about 0.37 on). This is one part of the list.
# Tested on: T1, PmTbr T-box DNA-binding domain (GST fusion)
# T1 sequence: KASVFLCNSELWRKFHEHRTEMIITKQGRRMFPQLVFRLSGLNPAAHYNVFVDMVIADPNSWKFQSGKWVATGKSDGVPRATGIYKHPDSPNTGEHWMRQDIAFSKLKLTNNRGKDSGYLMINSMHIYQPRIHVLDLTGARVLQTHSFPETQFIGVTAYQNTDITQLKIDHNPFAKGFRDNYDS
# Assay: PBM E-score of 8-mer (E-score (dimensionless, -0.5 to 0.5)); Tbr is Tbrain of the sea star Patiria miniata (Pm) or the sea urchin Strongylocentrotus purpuratus (Sp); higher = stronger binding preference; most listed sequences are background and not binding sites
# Details: the construct has about 5 more residues each side
# Summary of the method: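 Using the Universal PBM Analysis Suite, every ungapped 8-mer received an enrichment E-score averaged over duplicate arrays. Probe intensities came from double-stranded Universal Agilent oligonucleotide arrays incubated with 200 nM GST-fused Tbr T-box DNA-binding domain in PBS (pH 7.5). That protein was expressed in BL21 E. coli at 20 °C and purified by glutathione affinity chromatography.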
row,Sequence,PBM E-score of 8-mer
1,AGTATTGA,-0.19 ± 0.082
2,AAACGACA,0.0771 ± 0.079
3,ACGCGTCG,0.308 ± 0.0062
4,CGATTTTC,0.191 ± 0.044
5,CGCGTGTA,0.0515 ± 0.031
6,TCTGTACA,0.0305 ± 0.035
7,CCTAGTCC,-0.0967 ± 0.023
8,AGATCTGA,-0.0413 ± 0.036
9,AAGGCGGG,-0.0464 ± 0.047
10,CTCAGCCC,-0.148 ± 0.021
11,GTCGCTCA,0.0523 ± 0.0048
12,TCCATCCA,-0.105 ± 0.033
13,TCCTTCAA,-0.269 ± 0.065
14,ACGATGTG,0.25 ± 0.067
15,CATTCTCC,0.0365 ± 0.027
16,AGCTACGA,-0.0695 ± 0.044
17,GACTAGTA,-0.0454 ± 0.07
18,ACTATTTC,-0.214 ± 0.055
19,ACCCCCCG,-0.0145 ± 0.075
20,ACAAGCTC,0.107 ± 0.052
21,CGAAGGAC,-0.124 ± 0.056
22,CACTGTCG,0.173 ± 0.04
23,GGCCAGCC,-0.316 ± 0.069
24,AATCAGAA,-0.143 ± 0.0045
25,ATCTCCAT,-0.0834 ± 0.041

row,Sequence,PBM E-score of 8-mer
1,AATTTGAG,-0.197 ± 0.047
2,GGACTGAC,-0.0902 ± 0.049
3,ATTTATTA,-0.251 ± 0.096
4,TTTGAAAA,-0.171 ± 0.074
5,TGGACAAA,0.026 ± 0.13
6,CCACTGAC,0.12373 ± 0.00011
7,GATATCAC,0.331 ± 0.021
8,CGTTGCAC,0.19 ± 0.043
9,CCGTTTCG,-0.117 ± 0.097
10,AATTCGAC,-0.0254 ± 0.029
11,ACAGTTCG,0.161 ± 0.025
12,CGCACCGA,0.0275 ± 0.11
13,AGAGCGTA,-0.331 ± 0.071
14,CTTGTGCA,-0.0805 ± 0.008
15,ACCCTACC,0.000975 ± 0.068
16,TACGATGA,-0.0054 ± 0.016
17,CCTGTAGC,0.122 ± 0.0057
18,CTCTGGGC,-0.0481 ± 0.025
19,GCCTTAAC,0.0844 ± 0.0024
20,AGGGGTAA,-0.18 ± 0.0035
21,AACACCGG,0.155 ± 0.04
22,CGAGGCGC,0.324 ± 0.02
23,AACCGGGG,-0.044 ± 0.017
24,GACGCGCA,-0.111 ± 0.016
25,AATGACGC,0.125 ± 0.0051

row,Sequence,PBM E-score of 8-mer
1,AGTGAGCA,0.0767 ± 0.028
2,ATCGAGAG,0.0224 ± 0.029
3,CGACGCGC,0.189 ± 0.041
4,TATCATAA,-0.00543 ± 0.023
5,CGAACCGC,-0.114 ± 0.061
6,GCGCACAC,0.158 ± 0.038
7,CGCAACGC,0.057 ± 0.051
8,ACAGTTTA,0.179 ± 0.038
9,GGGGATAC,-0.113 ± 0.01
10,CAAGTCAC,0.269 ± 0.022
11,GAGCACCC,-0.19 ± 0.1
12,CAGATTTC,0.0631 ± 0.017
13,CGGATTAC,-0.19 ± 0.02
14,CCTAGAGC,-0.0438 ± 0.027
15,CACGCCTA,0.365 ± 0.012
16,GGCTTTCA,-0.0688 ± 0.0027
17,GTTTCACA,0.36 ± 0.027
18,CGTTGGAG,-0.0771 ± 0.11
19,GCCGCCCA,-0.1517 ± 0.00064
20,GACTGCCA,0.119 ± 0.018
21,ACGTGCCC,-0.0993 ± 0.1
22,AGTCAAAG,-0.132 ± 0.081
23,ACGCACAA,-0.0487 ± 0.033
24,AATGAAGG,-0.264 ± 0.034
25,CCTCGATA,-0.172 ± 0.0073

row,Sequence,PBM E-score of 8-mer
1,GCTTCCTA,-0.256 ± 0.015
2,AACAAACG,-0.122 ± 0.015
3,AGTCTGGA,-0.244 ± 0.035
4,TCTCTACA,-0.048 ± 0.038
5,GCGGTCCC,-0.123 ± 0.0081
6,ATGAAAGC,0.0125 ± 0.027
7,TTAGGGAA,-0.163 ± 0.016
8,CAGAGAAC,-0.0252 ± 0.054
9,AGGCACGA,-0.0253 ± 0.043
10,ATAACGTC,-0.0778 ± 0.044
11,GCTTGAAA,-0.188 ± 0.036
12,GCGCTTCC,0.117 ± 0.046
13,GGCAGACA,-0.107 ± 0.048
14,GCCCCAAA,0.078 ± 0.024
15,TCGCTTCA,0.177 ± 0.02
16,CTTTGTCA,0.308 ± 0.036
17,ACCGCAAG,0.0383 ± 0.04
18,AGGAATGG,-0.152 ± 0.069
19,GATCATAC,-0.0142 ± 0.05
20,AGACTTCC,-0.0382 ± 0.12
21,CGACCTAG,0.069 ± 0.019
22,AATACACC,0.1241 ± 0.0005
23,ATACAAGC,-0.14 ± 0.025
24,CGACTGGC,-0.01 ± 0.034
25,ACATGTGA,0.298 ± 0.025

row,Sequence,PBM E-score of 8-mer
1,CAGGGTGG,0.0511 ± 0.034
2,CTGTTGAC,0.121 ± 0.061
3,ACTTTATA,-0.0251 ± 0.092
4,CAAAATAA,-0.0132 ± 0.13
5,ACGTCCTC,-0.0662 ± 0.049
6,AGATACGC,0.00658 ± 0.015
7,GATGACCA,-0.0866 ± 0.028
8,ATTCTACC,-0.0556 ± 0.0063
9,CACATATC,0.241 ± 0.013
10,ATCTGAGA,-0.13 ± 0.0037
11,ATTGACTC,-0.101 ± 0.052
12,ATGTTCGA,-0.159 ± 0.072
13,GTCAGGGA,-0.2613 ± 0.00032
14,AGCATAAC,0.00613 ± 0.055
15,GCTCGGTA,-0.177 ± 0.016
16,TACGGATA,-0.0533 ± 0.1
17,CTTTAGAC,-0.077 ± 0.03
18,GTCTATTA,-0.191 ± 0.067
19,CGTGGTTC,-0.164 ± 0.091
20,CACCCGTG,0.227 ± 0.018
21,AATTCCCC,-0.241 ± 0.038
22,TCCTGTCA,0.209 ± 0.015
23,CTAGGAAG,-0.281 ± 0.1
24,ACTGCCCC,-0.142 ± 0.0078
25,AAGTTCGC,0.227 ± 0.0055

row,Sequence,PBM E-score of 8-mer
1,AAGTACAT,-0.253 ± 0.087
2,GGAATGAA,-0.332 ± 0.032
3,TCAGTAGA,-0.00112 ± 0.0062
4,AGGCCTAG,-0.122 ± 0.02
5,AGTTCAAA,-0.254 ± 0.064
6,AACCCTAT,-0.209 ± 0.015
7,CAGAATAA,0.0126 ± 0.051
8,ATAAATAG,-0.107 ± 0.059
9,CTGCAGAC,-0.148 ± 0.043
10,GCATTATA,-0.136 ± 0.043
11,GCTCAATA,-0.0299 ± 0.077
12,CCAGATAC,-0.0705 ± 0.082
13,GGTGCGAC,0.462 ± 0.017
14,CAATCTAC,-0.0883 ± 0.0018
15,CTGAGTAC,-0.0358 ± 0.071
16,GCTCGGCA,-0.057 ± 0.025
17,CGTCTAAA,-0.169 ± 0.012
18,CCGGCATA,-0.27 ± 0.0033
19,AACAATGC,-0.0597 ± 0.035
20,TCTCCACA,0.0702 ± 0.028
21,CACTGCGG,-0.0164 ± 0.029
22,CAGAGGCC,-0.0516 ± 0.092
23,GTATGGAC,-0.261 ± 0.022
24,GCGCACGA,0.205 ± 0.034
25,GGATATCA,0.0244 ± 0.043

row,Sequence,PBM E-score of 8-mer
1,AAGACCCT,-0.25 ± 0.032
2,AAGGACCC,-0.16 ± 0.038
3,ACGAGATA,-0.0492 ± 0.019
4,GAAAATCC,-0.0645 ± 0.025
5,AACTCCCC,0.012 ± 0.024
6,TCTACTCA,-0.148 ± 0.095
7,CCTATTCA,-0.00562 ± 0.0076
8,CCGTAATC,-0.292 ± 0.035
9,CACTTGGC,0.236 ± 0.038
10,CCGTCGTA,-0.0585 ± 0.074
11,CCTTAGAG,-0.0813 ± 0.0078
12,CGAACTCG,0.111 ± 0.044
13,AGGCGATG,0.262 ± 0.066
14,GAGAGGAC,-0.0422 ± 0.042
15,CCTCAGCA,0.171 ± 0.027
16,ACTCGCAG,0.0856 ± 0.036
17,TTATAAAA,-0.178 ± 0.16
18,GAACTGTC,0.224 ± 0.037
19,AACTCCCA,-0.116 ± 0.043
20,ACACCTTG,0.481 ± 0.0055
21,AGGCCTAA,-0.152 ± 0.053
22,ATAATATG,0.0176 ± 0.0027
